B1: LINE1-mini (parent)
chain: GGCAGAGCUCAACACAGCGUGGCAAAGUGGCUGUGGCUAGACUGCC

Read counts are not given, so values of variants with three or more changes are uncertain.

This data set covers variants of B1. The data set can be described thus: self-cleavage, relative activity (ratio to wild type); higher = more cleavage; in vitro, sequencing; the parent is a self-cleaving ribozyme.
As for G7U C23G G33U, the self-cleavage is 0.01.

In the case of G7C U9C A11U A14G G19U G30C U34G G40A C42U, the self-cleavage was 0.

Take G7U C8U U9A G19C: the self-cleavage worked out at 0.06.

As to G7U A12G A39C C42G C45G, the self-cleavage was 0.1.

G7C G40U C46G: the self-cleavage was 0.02.

For the variant G7U C10G G17A U28C G35U, the self-cleavage came to 0.01.

In the case of G7U A12U A24G A26G A41G, the self-cleavage came out at 0.02.

Consider G7U C13U A25U G33U, for which the self-cleavage turned out to be 0.15.

As for G7C U9G A16U G33U G40U, the self-cleavage is 0.02.

Consider G7U C8A G17A G35A, for which the self-cleavage is 0.06.

Take G7C U20C G30C U38A G44U: the self-cleavage is 0.03.

For the variant G7U C31A G35C, the self-cleavage stood at 0.07.

Regarding G7U A25G C45U, the self-cleavage was 0.06.

With G7U G17A G27U, the self-cleavage came to 0.03.

Turning to G7U C8G G35U G36C C37G A41C C42A, the self-cleavage was determined as 0.03.

Turning to G7U C18U U20G C23U G27A G36A C37A A41C, the self-cleavage came to 0.02.

In the case of G7U A25C C37G, the self-cleavage turned out to be 0.

With G7U C13A C15A C18U U32C C46U, the self-cleavage was 0.09.

As for G7C G22A C31A U32G, the self-cleavage was 0.04.

As for G7C G27C C31A C37G G40C U43C, the self-cleavage came out at 0.01.

As for G7U C8G C15U C23U G33C, the self-cleavage is 0.09.

On to G7C G29A G30C, for which the self-cleavage came out at 0.2.

As to G7U C8U C10U G27U, the self-cleavage worked out at 0.04.

For G7U A25C G36A, the self-cleavage was 0.28.

For G7C G21U U32A G40A, the self-cleavage is 0.12.

For the variant G7U A11U G22U A39U C46G, the self-cleavage is 0.01.

For the variant G7U C8A A12C C23U, the self-cleavage was determined as 0.06.

As for G7U A11U C46U, the self-cleavage was 0.01.

On to G7U C13A G19A G30A U32G, for which the self-cleavage turned out to be 0.11.

G7C G21A C23U G27U U34G: the self-cleavage is 0.02.

Take G7U A14C G17U C18A G30U G44C: the self-cleavage worked out at 0.08.

In the case of G7U C8A U20C U38A, the self-cleavage worked out at 0.09.

Consider G7U C15U A16U G36U, for which the self-cleavage amounted to 0.08.

As to G7C G21U G27A U32A, the self-cleavage is 0.07.

In the case of G7U C8U G36U G40C, the self-cleavage turned out to be 0.15.

Take G7U C23A G40U: the self-cleavage was 0.62.

As to G7U C10G A12U C18A G36C, the self-cleavage stood at 0.01.

Consider G7U A25G G44A, for which the self-cleavage is 0.15.

For G7C U20C U34A U43A, the self-cleavage was 0.01.

For the variant G7U C8G C13A C37A, the self-cleavage came to 0.02.

As for G7C G22U G44U, the self-cleavage was found to be 0.07.

On to G7U C8A A41U, for which the self-cleavage worked out at 0.3.

Regarding G7U A12U G22U U28G U34C C45G, the self-cleavage was found to be 0.08.

In the case of G7U A12U G21C G22U C45G, the self-cleavage came to 0.06.

Turning to G7U C8A C10A G17A G21A A25C G29A, the self-cleavage worked out at 0.06.

On to G7C U20G G30U A39C, for which the self-cleavage stood at 0.09.

With G7U A12G C18G G19A U38A A39U, the self-cleavage was found to be 0.13.

Regarding G7C G21A C37A, the self-cleavage came to 0.2.

With G7U C10G G21C G33C G40U, the self-cleavage was 0.02.

For the variant G7U A24C A25C G29C, the self-cleavage was determined as 0.02.

On to G7U C13U C18U C23A A39U G44U C45U, for which the self-cleavage is 0.25.

With G7U C15U C46A, the self-cleavage is 0.06.

As for G7U C10A C23A C42U, the self-cleavage was found to be 0.01.

As for G7U C31G U43C, the self-cleavage was found to be 0.11.

On to G7U C10G G30A A41C, for which the self-cleavage amounted to 0.02.

As for G7U A11G G29C C37U, the self-cleavage amounted to 0.01.

With G7U C13U G17A C23U, the self-cleavage amounted to 0.09.

For the variant G7U A14C A26C C42U, the self-cleavage amounted to 0.03.

With G7U C10A U32A C42G, the self-cleavage was determined as 0.02.

In the case of G7C U9G C15G G33A U34G G36A, the self-cleavage amounted to 0.06.

Turning to G7C G33C C46U, the self-cleavage was found to be 0.03.

On to G7U A11G U32A U34G, for which the self-cleavage came out at 0.

As for G7U C15A G30C A39G U43A, the self-cleavage was determined as 0.05.

Take G7C G33U G36U C37U U43G: the self-cleavage was 0.

For G7C G22C C42A, the self-cleavage is 0.12.

Turning to G7U A12G A24U G30A C31G A41U C42U, the self-cleavage worked out at 0.05.

With G7C U9C C13U C23U G33A, the self-cleavage was determined as 0.02.

On to G7C G19U C23U G29A C46U, for which the self-cleavage stood at 0.12.

Regarding G7C U9C G19C U20A A24U A25C G29C A39G, the self-cleavage stood at 0.

G7U A26C G29A: the self-cleavage worked out at 0.06.

On to G7C G29A A39C, for which the self-cleavage came to 0.03.

As to G7U C8U U38C, the self-cleavage worked out at 0.34.

On to G7U C23A U43C, for which the self-cleavage came to 0.06.

With G7C U9G G21U G44U, the self-cleavage was 0.03.

G7U C10A U20G G21U: the self-cleavage amounted to 0.03.

Regarding G7U C8G C13U A14C, the self-cleavage turned out to be 0.02.

In the case of G7C U20G G36C, the self-cleavage is 0.04.

As to G7U A14U C18G A26G C37U C45A, the self-cleavage came out at 0.06.

Regarding G7U C15G A24C, the self-cleavage is 0.02.

As to G7U A24U G29C C31G, the self-cleavage was determined as 0.03.

With G7U C8G C18A C42A, the self-cleavage amounted to 0.14.

Turning to G7U C8A C10A G17A G21C, the self-cleavage amounted to 0.01.

As for G7U C18G G30C, the self-cleavage came to 0.04.

Turning to G7U C13G G33U, the self-cleavage was 0.04.

Consider G7C U9A C13U, for which the self-cleavage was found to be 0.04.

For the variant G7C G33U G44C C45A, the self-cleavage turned out to be 0.15.

For the variant G7U C8A G30U C31A, the self-cleavage amounted to 0.12.

As for G7U C10G C23G A24C C37U, the self-cleavage came out at 0.

On to G7U C23A A26C C42A U43A, for which the self-cleavage was found to be 0.05.

Take G7U A12G C18G C23G A24C G27C U28A C45G: the self-cleavage amounted to 0.01.

Consider G7C U20G A25G, for which the self-cleavage was found to be 0.06.

In the case of G7C U20G C37U, the self-cleavage is 0.01.

Consider G7U C31U G40U A41G, for which the self-cleavage turned out to be 0.04.

For the variant G7C U32A G33A C46G, the self-cleavage was found to be 0.03.

Consider G7U A26C U34A A41G C42G, for which the self-cleavage was 0.15.

On to G7C G33A C42U, for which the self-cleavage amounted to 0.15.

Turning to G7U C8U C18U G22C C23U A39G, the self-cleavage is 0.01.

G7C G27A U32C: the self-cleavage amounted to 0.03.

Turning to G7U C15U A24U C42G, the self-cleavage turned out to be 0.09.

Consider G7U C10A A26U U32C G35A, for which the self-cleavage turned out to be 0.01.

With G7U C10G U20C G33C, the self-cleavage was 0.04.

Turning to G7U A25C G33U, the self-cleavage came to 0.04.

As for G7U A11G A14G A26U, the self-cleavage amounted to 0.03.

In the case of G7U C15G U28C, the self-cleavage was determined as 0.04.

Regarding G7U C8U C37A, the self-cleavage was 0.39.

G7U A11U G22C: the self-cleavage was 0.02.

Consider G7U C10A G17A U43A, for which the self-cleavage was 0.04.

Consider G7C G40U U43A, for which the self-cleavage is 0.04.

For the variant G7U C15A G17A C31A G33A A41G C42A, the self-cleavage is 0.05.

G7C U32C G33C G44U: the self-cleavage was found to be 0.06.

On to G7C G21A G35A U43C, for which the self-cleavage stood at 0.12.

Regarding G7U A12U G35A C46U, the self-cleavage is 0.08.

With G7C G27C G30U U43G, the self-cleavage was 0.

With G7C G27C C45U, the self-cleavage was found to be 0.01.

Turning to G7U C10U C15U, the self-cleavage is 0.02.

For the variant G7U C10U G19C G21U G40A, the self-cleavage came to 0.01.

As for G7U C8G G22U G29U G30A, the self-cleavage was 0.12.

Regarding G7C G29A C37A, the self-cleavage was 0.02.

For the variant G7U A11U A24C G27A, the self-cleavage was found to be 0.06.

For the variant G7U C13A G17U, the self-cleavage came to 0.02.

Take G7C G27C U28C: the self-cleavage was 0.05.

On to G7C U9G A11C G30A, for which the self-cleavage stood at 0.01.

For the variant G7U C15A A24G A39C, the self-cleavage worked out at 0.07.

In the case of G7U C10G A26G A41G C45A, the self-cleavage came to 0.01.

As to G7U C42U U43A, the self-cleavage was 0.21.

Regarding G7U A24G G27A A41U, the self-cleavage is 0.13.

For the variant G7U C15U C18A, the self-cleavage came to 0.04.

On to G7U C15A G27C C46G, for which the self-cleavage is 0.11.

On to G7U C8A U32A C46A, for which the self-cleavage is 0.25.

As to G7C G36U C37A C45A, the self-cleavage is 0.12.

In the case of G7C U9A U38A, the self-cleavage was 0.04.

For G7U C8A G17A, the self-cleavage came to 0.48.

Turning to G7U C10G G17C, the self-cleavage stood at 0.01.

Turning to G7C G21C A41C, the self-cleavage stood at 0.05.

Consider G7U A26U U32G A39G, for which the self-cleavage was 0.13.

In the case of G7C G19C U20A U32C, the self-cleavage turned out to be 0.01.

G7U C8A A11C A24G C31U U34A C46A: the self-cleavage was 0.01.

For G7U A12C C42G, the self-cleavage was 0.01.

For G7C G27U U43A, the self-cleavage turned out to be 0.04.

For G7U A11U A16G C18A A41U G44C, the self-cleavage came out at 0.06.

For G7U A11G C13G G17C G22U, the self-cleavage is 0.03.

With G7U A11G A12C, the self-cleavage came to 0.02.

As to G7C G22A G35C, the self-cleavage is 0.07.

As to G7U C8A U32G G40C, the self-cleavage was 0.18.

On to G7U A16G U20A, for which the self-cleavage amounted to 0.1.

Consider G7U C15U G19A G29C C46A, for which the self-cleavage came to 0.15.

For the variant G7C G21A G29U C46A, the self-cleavage amounted to 0.26.

On to G7C U34G A39G C42U, for which the self-cleavage was 0.02.

Turning to G7U A12G A26U, the self-cleavage turned out to be 0.03.

Turning to G7U C10G G44A C46G, the self-cleavage stood at 0.02.

For the variant G7U A16G G44A, the self-cleavage was determined as 0.1.

With G7C G17U U38C C46U, the self-cleavage stood at 0.04.

In the case of G7U C23A G29U U32C, the self-cleavage worked out at 0.03.

On to G7U A12C C46U, for which the self-cleavage worked out at 0.03.

Take G7U C8U A25C G30U C31A: the self-cleavage was determined as 0.07.

For G7U C10A G27U G36A, the self-cleavage amounted to 0.01.

Consider G7U G17A C23G U28C C31A G33C, for which the self-cleavage was found to be 0.03.

On to G7U A16C G17A G19A C23U C31G, for which the self-cleavage turned out to be 0.01.

Consider G7C U28A G40C, for which the self-cleavage worked out at 0.1.

Regarding G7U A11G C13A A14U G27U C31G G36A A39C, the self-cleavage turned out to be 0.02.

As for G7C G19C C45G, the self-cleavage was determined as 0.06.

For G7C G22C C31U, the self-cleavage came out at 0.04.

For the variant G7U A25C G44U, the self-cleavage worked out at 0.07.

Take G7U C15A C18G: the self-cleavage was determined as 0.68.

As for G7U C8U G40U, the self-cleavage is 0.11.

Consider G7U C8G G17C C46A, for which the self-cleavage was 0.06.

Consider G7C G19A G29A C31G, for which the self-cleavage was found to be 0.04.

The values are drawn from the RNAGym collection of RNA variant scans (doi:10.7554/elife.90254).
